The results in this text go back to the RNAGym collection of RNA variant scans (doi:10.1101/gad.245936.114).

Sequences and labels used below:
B1: tRNA (parent)
chain: CUCUCGGUAGCCAAGUUGGUUUAAGGCGCAAGACUUUAAUUUAUCACUACGAAAUCUUGAGAUCGGGCGUUCGACUCGCCCCCGGGAGAUUUUUUCCUCGAGCAA

Variants at the background level are over-represented here.

The variants in the data set derive from B1. The data set can be described thus: nonsense suppression (GFP-seq) (ratio to wild type); higher = more function; SUP4oc tRNA, yeast GFP reporter sort-seq. In outline: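 Yeast carrying genome-integrated SUP4oc tRNA variants from a library with ~3% random mutations were grown in raffinose/galactose medium with 80 mg/L adenine. Each strain also carried a galactose-driven GFP ochre reporter and RFP. Cells were sorted into GFP/RFP bins, and each bin was Illumina-sequenced (phred ≥30). Nonsense suppression (GFPSEQ) is the bin median GFP/RFP, weighted by each variant's estimated cell share per bin, relative to wild-type SUP4oc; variants needed ≥100 reads and ≥30 cells.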
Regarding G19U A30C, the nonsense suppression is at most 0.026.

For the variant C1U U8A G78U A89U, the nonsense suppression was at most 0.026.

For C1U G73C, the nonsense suppression is at most 0.026.

Consider U8C G10A G15U, for which the nonsense suppression was at most 0.026.

For the variant A9U C11A A14G C56G G69A U76C, the nonsense suppression was at most 0.026.

Take U16C G18U A24C G25A: the nonsense suppression was at most 0.026.

Take C11U G84C A89C: the nonsense suppression was at most 0.026.

In the case of G7U G28C, the nonsense suppression was at most 0.026.

On to U70G G88C A89C, for which the nonsense suppression is at most 0.026.

With C12G A30C, the nonsense suppression is at most 0.026.

Turning to C12G A13G A23U, the nonsense suppression was at most 0.026.

Turning to G66A G84C, the nonsense suppression is at most 0.026.

Take C5G G66U U71C: the nonsense suppression was at most 0.026.

Turning to U17A A23G G84U, the nonsense suppression was at most 0.026.

As to C12U A24U, the nonsense suppression was determined as 0.118.

On to G61C U76C, for which the nonsense suppression amounted to 0.23.

Turning to A62G A74U G86U, the nonsense suppression was at most 0.026.

As for A9C G15C, the nonsense suppression is at most 0.026.

For G61A A87G, the nonsense suppression amounted to 0.197.

Regarding U35A U71C, the nonsense suppression was at most 0.026.

G28A U35G G67A G84C G88U: the nonsense suppression is at most 0.026.

On to C1U U76C C82U, for which the nonsense suppression is at most 0.026.

Regarding C1U A9G G26C G66A C83U, the nonsense suppression is at most 0.026.

On to G61U G86U, for which the nonsense suppression was at most 0.026.

Take C1U G19A A62U G65U G88C: the nonsense suppression was at most 0.026.

Regarding G18U U55C, the nonsense suppression was 0.0402.

Turning to C27U G59U A60C, the nonsense suppression is at most 0.026.

Consider C3U U76G, for which the nonsense suppression was at most 0.026.

Consider U22G C77G, for which the nonsense suppression is at most 0.026.

For the variant G10U C29U C79U, the nonsense suppression is at most 0.026.

Turning to A13C G18C G26U, the nonsense suppression is at most 0.026.

Take U2A C29G G61C G78A: the nonsense suppression is at most 0.026.

As to G32C A54G G86A, the nonsense suppression is at most 0.026.

On to C12A C56G A62C C81A, for which the nonsense suppression is at most 0.026.

Take C34G C56A: the nonsense suppression is at most 0.026.

With C3A G7U, the nonsense suppression was at most 0.026.

Consider C11U A74G, for which the nonsense suppression was at most 0.026.

As for G10C U35A G66C G85U, the nonsense suppression was at most 0.026.

For the variant U63C G67C C79U C83G, the nonsense suppression was at most 0.026.

As to C3G C5U G32U U55G, the nonsense suppression was at most 0.026.

As for A23C C27G, the nonsense suppression was at most 0.026.

As for C27U A60C A62U G78C, the nonsense suppression was at most 0.026.

On to G10U U16G G19C, for which the nonsense suppression is at most 0.026.

On to U17C C77U, for which the nonsense suppression was at most 0.026.

With U2A C3U U57G A60U, the nonsense suppression was at most 0.026.

For the variant A14G G18C A30U G66C, the nonsense suppression was at most 0.026.

As for A13G U20C G84A G86A, the nonsense suppression is at most 0.026.

For G15A A24C A33C U55A U70A G84A, the nonsense suppression was at most 0.026.

Turning to A62U C75G G85U, the nonsense suppression was at most 0.026.

Take U2G G59C G85C: the nonsense suppression was at most 0.026.

As to C3A A24G U70C, the nonsense suppression was at most 0.026.

U2G A9G U55G: the nonsense suppression was at most 0.026.

For the variant A9G A14C A23G C29G, the nonsense suppression was at most 0.026.

Turning to U35G U76A, the nonsense suppression is at most 0.026.

As to U55A G73C U76A, the nonsense suppression was at most 0.026.

Turning to A62C G65U G66U A74G, the nonsense suppression was at most 0.026.

In the case of C77A C81A G86A, the nonsense suppression was at most 0.026.

As to A30G A62G C68U, the nonsense suppression is at most 0.026.

On to A33G U58G U63G, for which the nonsense suppression was at most 0.026.

For A30C C34G U71G A74U, the nonsense suppression was at most 0.026.

On to A13G A30C U55C G65A, for which the nonsense suppression was at most 0.026.

With C1U A31C, the nonsense suppression is at most 0.026.

On to C64A, for which the nonsense suppression is at most 0.026.

G78A C80U: the nonsense suppression is at most 0.026.

For C11G U35C, the nonsense suppression is at most 0.026.

In the case of A14U U71A, the nonsense suppression is at most 0.026.

Turning to A54C U71G, the nonsense suppression was at most 0.026.

As for C34A A62U G88U, the nonsense suppression was at most 0.026.

Regarding G6C A33G G84U, the nonsense suppression is at most 0.026.

With U21G C83G, the nonsense suppression is at most 0.026.

For G15U C68U G78C C82G G84A, the nonsense suppression was at most 0.026.

Consider G18U C27G, for which the nonsense suppression is at most 0.026.

On to U2G G15U C81G A89G, for which the nonsense suppression was at most 0.026.

Take G26A G59U G66A: the nonsense suppression is at most 0.026.

Take A13U G65C C75A G84A: the nonsense suppression was at most 0.026.

With C5U G67U C79G, the nonsense suppression is at most 0.026.

In the case of U16G U21C, the nonsense suppression came out at 0.905.

Take A9C A30U C56G A62C: the nonsense suppression was at most 0.026.

For the variant G26U A33U A89U, the nonsense suppression is at most 0.026.

As to G15A C80U, the nonsense suppression was found to be 0.167.

With U4A A33U U71A A74G, the nonsense suppression is at most 0.026.

As to G18C A87C, the nonsense suppression was at most 0.026.

Consider U21A A24C U70G U76A G85A, for which the nonsense suppression is at most 0.026.

For G25U G66U, the nonsense suppression was at most 0.026.

As for U8A C56A A74G C81G A87G, the nonsense suppression was at most 0.026.

As for A14U U17A C81G, the nonsense suppression is at most 0.026.

C12U U20A U22G A23U: the nonsense suppression is at most 0.026.

For G15U U20C, the nonsense suppression was 0.0275.

Take C27U G28C A30U G85U: the nonsense suppression is at most 0.026.

Take U35G C77G: the nonsense suppression is at most 0.026.

In the case of G25U C27U G84C, the nonsense suppression was at most 0.026.

As to U55C G65A, the nonsense suppression was determined as 0.0796.

Take A24G U71G: the nonsense suppression was at most 0.026.

For C27U A33G G66A C82U, the nonsense suppression is at most 0.026.

Consider A13U C81A, for which the nonsense suppression is at most 0.026.

Regarding G10U G15U G67C, the nonsense suppression is at most 0.026.

C79U C82G A89U: the nonsense suppression was at most 0.026.

Turning to C3A A60C, the nonsense suppression was at most 0.026.

In the case of U2G G6C G18A G67C G86A A87G, the nonsense suppression is at most 0.026.

For C12U G59A U76G, the nonsense suppression is at most 0.026.

For C27A U57A, the nonsense suppression was at most 0.026.

For A62U C68G U70C, the nonsense suppression is at most 0.026.

Take C29A C68G: the nonsense suppression is at most 0.026.

With G67U, the nonsense suppression was at most 0.026.

For the variant A9U C64A G66C, the nonsense suppression was at most 0.026.

For the variant U55C A62U, the nonsense suppression is at most 0.026.

With C12G U21C G65C, the nonsense suppression was at most 0.026.

Regarding C1G A54C A60G, the nonsense suppression is at most 0.026.

Consider U63G C79G G85C, for which the nonsense suppression was at most 0.026.

Turning to G18U G61A, the nonsense suppression was at most 0.026.

Take C1A C29U U76C C82A: the nonsense suppression was at most 0.026.

As for G10U U58C, the nonsense suppression is at most 0.026.

Take G19U U71A: the nonsense suppression is at most 0.026.

G15A A54C U71G G78A: the nonsense suppression was at most 0.026.

Consider A24G U63C G73A, for which the nonsense suppression is at most 0.026.

Take G66C U71G C82A: the nonsense suppression was at most 0.026.

On to A14G U58G C75G, for which the nonsense suppression was at most 0.026.

On to C3G A23U C27U A89U, for which the nonsense suppression was at most 0.026.

For C3U C29G C83G G88C, the nonsense suppression stood at 0.993.

With G7C A33G G84A, the nonsense suppression was at most 0.026.

As for G26U C27A A60G U76C, the nonsense suppression is at most 0.026.

With U35G U71C A74C G88U, the nonsense suppression is at most 0.026.

In the case of U57A C68A, the nonsense suppression is at most 0.026.

With U22C A54U, the nonsense suppression was 1.05.

Regarding G59C G67U, the nonsense suppression was at most 0.026.

Take U57A: the nonsense suppression was determined as 0.0873.

In the case of C5G U22G U70A U76C, the nonsense suppression was at most 0.026.

Consider U4A G15C, for which the nonsense suppression is at most 0.026.

Consider A13G C68U, for which the nonsense suppression is 0.146.

With U17G A60C G67A, the nonsense suppression is at most 0.026.

In the case of U22G A30U, the nonsense suppression is 0.184.

As for U2G U17G G19U A23C G86C, the nonsense suppression was at most 0.026.

Take U17A U21C C75U C81A G84U: the nonsense suppression was at most 0.026.

Turning to U35C, the nonsense suppression is at most 0.026.

Consider U20C A23U A24U A62U, for which the nonsense suppression was at most 0.026.

In the case of C27G C75A, the nonsense suppression was at most 0.026.

As to C12A A23C C64U U71C, the nonsense suppression was at most 0.026.

As to U4A A14U, the nonsense suppression came out at 0.0276.

On to C1U C11U A60U U76A G84U, for which the nonsense suppression is at most 0.026.

In the case of G10C U20G U55A U57G C83G, the nonsense suppression is at most 0.026.

Take U16A C64G G69U: the nonsense suppression is at most 0.026.

G15U G61U: the nonsense suppression was at most 0.026.

Regarding C83A G86C, the nonsense suppression is at most 0.026.

Regarding C5A C12U G18U U70A C79U, the nonsense suppression is at most 0.026.

As for A31C A62G, the nonsense suppression was at most 0.026.

Consider A9C G25C C72G, for which the nonsense suppression was at most 0.026.

As for U71C G88U, the nonsense suppression is at most 0.026.

Regarding A54U C83G, the nonsense suppression is at most 0.026.

In the case of A24U U63A, the nonsense suppression was 0.119.

Regarding C11G A54G, the nonsense suppression is at most 0.026.

Turning to U22C C29U G66A U76G, the nonsense suppression was at most 0.026.

As to U4G U71A, the nonsense suppression was 0.0967.

Regarding A13G A31G, the nonsense suppression amounted to 0.149.

On to A31G U35G G88U, for which the nonsense suppression was at most 0.026.

In the case of C11U A23C C27A C80A, the nonsense suppression was at most 0.026.

For the variant C11U G28C A33C G88C, the nonsense suppression is at most 0.026.

With G6C C56G, the nonsense suppression was at most 0.026.

For U71A C82A, the nonsense suppression was at most 0.026.

Consider C3U A23C C27G C34A C81G G86A, for which the nonsense suppression is at most 0.026.

Consider C64U U76C, for which the nonsense suppression is at most 0.026.

For the variant U55A A87C, the nonsense suppression is at most 0.026.

As to A23C C34U G78U, the nonsense suppression was at most 0.026.

As to G6U A74U G86C, the nonsense suppression is at most 0.026.

In the case of C1G U22G G66U, the nonsense suppression is at most 0.026.

As to G66C G69U, the nonsense suppression was at most 0.026.

For the variant C27A C29U, the nonsense suppression is at most 0.026.

U16A U71G C75G: the nonsense suppression was at most 0.026.
